Test results published in the supplement of paper PMC8728848.
Some of the results follow.

Columns and labels:
Assay in all cases: glycan array binding signal (z-score within array); higher = stronger binding
Details in all cases: glycan notation: IUPAC condensed, linker removed
[1] = molecular target: Neu5Ac(a2-3)Gal(b1-3)GlcNAc6S
Summary of the method: (§1)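 The Consortium for Functional Glycomics database supplied 3228 glycan arrays, of which those lacking an available protein sequence were dropped. The binding signal, a within-array Z-score, was averaged across arrays of the same protein sequence and across linkers. Negative scores can be read as non-binding.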

[2] = molecular target: Neu5Ac(a2-3)Gal(b1-3)[Fuc(a1-4)]GlcNAc
Summary of the method: as §1

[3] = molecular target: Neu5Ac(a2-3)Gal(b1-3)[Fuc(a1-4)]GlcNAc(b1-3)Gal(b1-3)[Fuc(a1-4)]GlcNAc
Summary of the method: as §1

[4] = molecular target: Neu5Ac(a2-3)Gal(b1-3)[Fuc(a1-4)]GlcNAc(b1-3)Gal(b1-4)[Fuc(a1-3)]GlcNAc
Summary of the method: as §1

[5] = molecular target: Neu5Ac(a2-3)Gal(b1-3)[GlcNAc(b1-6)]GalNAc
Summary of the method: as §1

[6] = molecular target: Neu5Ac(a2-3)Gal(b1-3)[Neu5Ac(a2-6)]GalNAc
Summary of the method: as §1

[7] = molecular target: Neu5Ac(a2-3)Gal(b1-3)[Neu5Ac(a2-6)]GlcNAc(b1-3)[Fuc(a1-3)[Gal(b1-4)]GlcNAc(b1-6)]Gal(b1-4)Glc
Summary of the method: as §1

[8] = molecular target: Neu5Ac(a2-3)Gal(b1-3)]Neu5Ac(a2-3)Gal(b1-4)]GlcNAc
Summary of the method: as §1

Neu5Ac(a2-3)Gal(b1-4)Glc = molecular target: Neu5Ac(a2-3)Gal(b1-4)Glc
Summary of the method: as §1

[9] = molecular target: Neu5Ac(a2-3)Gal(b1-4)GlcNAc
Summary of the method: as §1

[10] = molecular target: Neu5Ac(a2-3)Gal(b1-4)GlcNAc(b1-2)Man
Summary of the method: as §1

[11] = molecular target: Neu5Ac(a2-3)Gal(b1-4)GlcNAc(b1-2)Man(a1-3)[GlcNAc(b1-4)][Neu5Ac(a2-3)Gal(b1-4)GlcNAc(b1-2)Man(a1-6)]Man(b1-4)GlcNAc(b1-4)GlcNAc
Summary of the method: as §1

[12] = molecular target: Neu5Ac(a2-3)Gal(b1-4)GlcNAc(b1-2)Man(a1-3)[Neu5Ac(a2-3)Gal(b1-4)GlcNAc(b1-2)Man(a1-6)]Man(b1-4)GlcNAc(b1-4)GlcNAc
Summary of the method: as §1

[13] = molecular target: Neu5Ac(a2-3)Gal(b1-4)GlcNAc(b1-2)Man(a1-3)[Neu5Ac(a2-3)Gal(b1-4)GlcNAc(b1-2)Man(a1-6)]Man(b1-4)GlcNAc(b1-4)[Fuc(a1-6)]GlcNAc
Summary of the method: as §1

[14] = molecular target: Neu5Ac(a2-3)Gal(b1-4)GlcNAc(b1-2)Man(a1-3)[Neu5Ac(a2-6)Gal(b1-4)GlcNAc(b1-2)Man(a1-6)]Man(b1-4)GlcNAc(b1-4)GlcNAc
Summary of the method: as §1

[15] = molecular target: Neu5Ac(a2-3)Gal(b1-4)GlcNAc(b1-2)[Neu5Ac(a2-3)Gal(b1-4)GlcNAc(b1-4)]Man(a1-3)[GlcNAc(b1-4)][Neu5Ac(a2-3)Gal(b1-4)GlcNAc(b1-2)[Neu5Ac(a2-3)Gal(b1-4)GlcNAc(b1-6)]Man(a1-6)]Man(b1-4)GlcNAc(b1-4)GlcNAc
Summary of the method: as §1

[16] = molecular target: Neu5Ac(a2-3)Gal(b1-4)GlcNAc(b1-2)[Neu5Ac(a2-3)Gal(b1-4)GlcNAc(b1-4)]Man(a1-3)[GlcNAc(b1-4)][Neu5Ac(a2-3)Gal(b1-4)GlcNAc(b1-4)Man(a1-6)]Man(b1-4)GlcNAc(b1-4)GlcNAc
Summary of the method: as §1

[17] = molecular target: Neu5Ac(a2-3)Gal(b1-4)GlcNAc(b1-2)[Neu5Ac(a2-3)Gal(b1-4)GlcNAc(b1-6)]Man(a1-6)[Neu5Ac(a2-3)Gal(b1-4)GlcNAc(b1-2)Man(a1-3)][GlcNAc(b1-4)]Man(b1-4)GlcNAc(b1-4)GlcNAc
Summary of the method: as §1

[18] = molecular target: Neu5Ac(a2-3)Gal(b1-4)GlcNAc(b1-3)Gal
Summary of the method: as §1

[19] = molecular target: Neu5Ac(a2-3)Gal(b1-4)GlcNAc(b1-3)Gal(b1-3)GlcNAc
Summary of the method: as §1

[20] = molecular target: Neu5Ac(a2-3)Gal(b1-4)GlcNAc(b1-3)Gal(b1-4)GlcNAc
Summary of the method: as §1

[21] = molecular target: Neu5Ac(a2-3)Gal(b1-4)GlcNAc(b1-3)Gal(b1-4)GlcNAc(b1-2)Man(a1-3)[Neu5Ac(a2-3)Gal(b1-4)GlcNAc(b1-3)Gal(b1-4)GlcNAc(b1-2)Man(a1-6)]Man(b1-4)GlcNAc(b1-4)GlcNAc
Summary of the method: as §1

[22] = molecular target: Neu5Ac(a2-3)Gal(b1-4)GlcNAc(b1-3)Gal(b1-4)GlcNAc(b1-3)Gal(b1-4)GlcNAc
Summary of the method: as §1

[23] = molecular target: Neu5Ac(a2-3)Gal(b1-4)GlcNAc(b1-3)Gal(b1-4)GlcNAc(b1-3)Gal(b1-4)GlcNAc(b1-2)Man(a1-3)[Neu5Ac(a2-3)Gal(b1-4)GlcNAc(b1-3)Gal(b1-4)GlcNAc(b1-3)Gal(b1-4)GlcNAc(b1-2)Man(a1-6)]GalNAc
Summary of the method: as §1

[24] = molecular target: Neu5Ac(a2-3)Gal(b1-4)GlcNAc(b1-3)Gal(b1-4)GlcNAc(b1-3)GalNAc
Summary of the method: as §1

[25] = molecular target: Neu5Ac(a2-3)Gal(b1-4)GlcNAc(b1-3)Gal(b1-4)GlcNAc(b1-3)[Neu5Ac(a2-3)Gal(b1-4)GlcNAc(b1-3)Gal(b1-4)GlcNAc(b1-6)]GalNAc
Summary of the method: as §1

[26] = molecular target: Neu5Ac(a2-3)Gal(b1-4)GlcNAc(b1-3)Gal(b1-4)GlcNAc(b1-6)[Gal(b1-3)]GalNAc
Summary of the method: as §1

[27] = molecular target: Neu5Ac(a2-3)Gal(b1-4)GlcNAc(b1-3)Gal(b1-4)[Fuc(a1-3)]GlcNAc
Summary of the method: as §1

[28] = molecular target: Neu5Ac(a2-3)Gal(b1-4)GlcNAc(b1-3)GalNAc
Summary of the method: as §1

[29] = molecular target: Neu5Ac(a2-3)Gal(b1-4)GlcNAc(b1-3)[Neu5Ac(a2-3)Gal(b1-4)GlcNAc(b1-6)]GalNAc
Summary of the method: as §1

[30] = molecular target: Neu5Ac(a2-3)Gal(b1-4)GlcNAc(b1-6)GalNAc
Summary of the method: as §1

[31] = molecular target: Neu5Ac(a2-3)Gal(b1-4)GlcNAc(b1-6)[Gal(b1-3)]GalNAc
Summary of the method: as §1

[32] = molecular target: Neu5Ac(a2-3)Gal(b1-4)GlcNAc(b1-6)[Neu5Ac(a2-3)Gal(b1-3)]GalNAc
Summary of the method: as §1

[33] = molecular target: Neu5Ac(a2-3)Gal(b1-4)GlcNAc6S
Summary of the method: as §1

[34] = molecular target: Neu5Ac(a2-3)Gal(b1-4)[Fuc(a1-3)]GlcNAc
Summary of the method: as §1

[35] = molecular target: Neu5Ac(a2-3)Gal(b1-4)[Fuc(a1-3)]GlcNAc(b1-2)Man
Summary of the method: as §1

[36] = molecular target: Neu5Ac(a2-3)Gal(b1-4)[Fuc(a1-3)]GlcNAc(b1-3)Gal
Summary of the method: as §1

[37] = molecular target: Neu5Ac(a2-3)Gal(b1-4)[Fuc(a1-3)]GlcNAc(b1-3)Gal(b1-4)GlcNAc
Summary of the method: as §1

[38] = molecular target: Neu5Ac(a2-3)Gal(b1-4)[Fuc(a1-3)]GlcNAc(b1-3)Gal(b1-4)[Fuc(a1-3)]GlcNAc(b1-3)Gal(b1-4)[Fuc(a1-3)]GlcNAc
Summary of the method: as §1

[39] = molecular target: Neu5Ac(a2-3)Gal(b1-4)[Fuc(a1-3)]GlcNAc(b1-3)GalNAc
Summary of the method: as §1

[40] = molecular target: Neu5Ac(a2-3)Gal(b1-4)[Fuc(a1-3)]GlcNAc(b1-6)[Gal(b1-3)]GalNAc
Summary of the method: as §1

[41] = molecular target: Neu5Ac(a2-3)Gal(b1-4)[Fuc(a1-3)]GlcNAc(b1-6)[Neu5Ac(a2-3)Gal(b1-3)]GalNAc
Summary of the method: as §1

[42] = molecular target: Neu5Ac(a2-3)Gal(b1-4)[Fuc(a1-3)]GlcNAc6S
Summary of the method: as §1

[43] = molecular target: Neu5Ac(a2-3)Gal6S(b1-4)GlcNAc
Summary of the method: as §1

[44] = molecular target: Neu5Ac(a2-3)Gal6S(b1-4)[Fuc(a1-3)]GlcNAc
Summary of the method: as §1

B1: rCnSL-A (Clitocybe nebularis) (protein)
chain: VNPNLPGPNDVFVGFRGTNNIVGAIYEKDGIKDTPLNNGADAEMGPGSYITDGLFTARIFASGSAGNNPGTTATVCKIYASGVQWRGAPKGYIPVAYFGNGPTAEQRRQTYLRTLGLPGTAIRFGNLNTNPGQGPTAPRQMVVPPGPLRSLLKASCFPAADTRLPQTLHYFEKRVDWNIITAADSQTWGH
- glycan array binding signal (z-score) [1]: -0.024
- glycan array binding signal (z-score) [2]: -0.233
- glycan array binding signal (z-score) [3]: -0.21
- glycan array binding signal (z-score) [4]: -0.191
- glycan array binding signal (z-score) [5]: -0.263
- glycan array binding signal (z-score) [6]: -0.305
- glycan array binding signal (z-score) [7]: -0.182
- glycan array binding signal (z-score) [8]: -0.201
- glycan array binding signal (z-score) (Neu5Ac(a2-3)Gal(b1-4)Glc): -0.078
- glycan array binding signal (z-score) [9]: -0.381
- glycan array binding signal (z-score) [10]: -0.112
- glycan array binding signal (z-score) [11]: -0.207
- glycan array binding signal (z-score) [12]: -0.343
- glycan array binding signal (z-score) [13]: -0.158
- glycan array binding signal (z-score) [14]: -0.25
- glycan array binding signal (z-score) [15]: -0.262
- glycan array binding signal (z-score) [16]: -0.265
- glycan array binding signal (z-score) [17]: -0.327
- glycan array binding signal (z-score) [18]: -0.357
- glycan array binding signal (z-score) [19]: -0.298
- glycan array binding signal (z-score) [20]: -0.151
- glycan array binding signal (z-score) [21]: 0.262
- glycan array binding signal (z-score) [22]: -0.388
- glycan array binding signal (z-score) [23]: 0.765
- glycan array binding signal (z-score) [24]: -0.238
- glycan array binding signal (z-score) [25]: -0.017
- glycan array binding signal (z-score) [26]: -0.155
- glycan array binding signal (z-score) [27]: -0.21
- glycan array binding signal (z-score) [28]: -0.249
- glycan array binding signal (z-score) [29]: -0.128
- glycan array binding signal (z-score) [30]: -0.254
- glycan array binding signal (z-score) [31]: -0.122
- glycan array binding signal (z-score) [32]: -0.165
- glycan array binding signal (z-score) [33]: -0.227
- glycan array binding signal (z-score) [34]: -0.266
- glycan array binding signal (z-score) [35]: -0.547
- glycan array binding signal (z-score) [36]: -0.229
- glycan array binding signal (z-score) [37]: -0.169
- glycan array binding signal (z-score) [38]: 0.07
- glycan array binding signal (z-score) [39]: -0.056
- glycan array binding signal (z-score) [40]: -0.138
- glycan array binding signal (z-score) [41]: -0.116
- glycan array binding signal (z-score) [42]: -0.17
- glycan array binding signal (z-score) [43]: -0.297
- glycan array binding signal (z-score) [44]: -0.252
